# Test results from PubChem BioAssay (Tox21).
# “And” between values parts separate entries of the source, which are not always exact repeats. Equal values may be shown once. Inconclusive means that the source gave no clear call. Such entries were picked first, then a sample of the others. For part of these data: No potency is given beside an inconclusive call; the fits are too rough. Where a structure was tested more than once in an assay, its records may differ in their call. The source made the active and inactive calls. Unless noted, calls come from the whole dose curve; as a rule, active = well fitted curve in the direction sought with a large enough effect in the repeat runs; inconclusive = weak or mixed curves; inactive = no such curve, though single readings can be large; an effect the other way counts as inactive or inconclusive.
# What was measured:
# [1] = biological target: Androgen receptor (Homo sapiens) (UniProt P10275); experiment: qHTS assay to identify small molecule agonists of the androgen receptor (AR) signaling pathway (AID 743036; active = well fitted activation curve with a large enough effect in the signal ratio in the repeat runs, with a control signal flat, not every such curve was filed as active; inconclusive = weak or mixed curves, or effect the other way; inactive = no such curve, though single readings can be large or run the other way; the % refers to the signal ratio; note: potency is the fitted concentration of half-maximal effect; for activation: % is set by controls: 0 for no effect and ±100 for the full control effect); conditions: HEK293 AR-UAS-bla GripTite, beta-lactamase FRET ratio, 16 h; activation: at 62.4 µM (top of the series) unless noted
# UniProt P10275, sequence (P10275 whole entry, looked up): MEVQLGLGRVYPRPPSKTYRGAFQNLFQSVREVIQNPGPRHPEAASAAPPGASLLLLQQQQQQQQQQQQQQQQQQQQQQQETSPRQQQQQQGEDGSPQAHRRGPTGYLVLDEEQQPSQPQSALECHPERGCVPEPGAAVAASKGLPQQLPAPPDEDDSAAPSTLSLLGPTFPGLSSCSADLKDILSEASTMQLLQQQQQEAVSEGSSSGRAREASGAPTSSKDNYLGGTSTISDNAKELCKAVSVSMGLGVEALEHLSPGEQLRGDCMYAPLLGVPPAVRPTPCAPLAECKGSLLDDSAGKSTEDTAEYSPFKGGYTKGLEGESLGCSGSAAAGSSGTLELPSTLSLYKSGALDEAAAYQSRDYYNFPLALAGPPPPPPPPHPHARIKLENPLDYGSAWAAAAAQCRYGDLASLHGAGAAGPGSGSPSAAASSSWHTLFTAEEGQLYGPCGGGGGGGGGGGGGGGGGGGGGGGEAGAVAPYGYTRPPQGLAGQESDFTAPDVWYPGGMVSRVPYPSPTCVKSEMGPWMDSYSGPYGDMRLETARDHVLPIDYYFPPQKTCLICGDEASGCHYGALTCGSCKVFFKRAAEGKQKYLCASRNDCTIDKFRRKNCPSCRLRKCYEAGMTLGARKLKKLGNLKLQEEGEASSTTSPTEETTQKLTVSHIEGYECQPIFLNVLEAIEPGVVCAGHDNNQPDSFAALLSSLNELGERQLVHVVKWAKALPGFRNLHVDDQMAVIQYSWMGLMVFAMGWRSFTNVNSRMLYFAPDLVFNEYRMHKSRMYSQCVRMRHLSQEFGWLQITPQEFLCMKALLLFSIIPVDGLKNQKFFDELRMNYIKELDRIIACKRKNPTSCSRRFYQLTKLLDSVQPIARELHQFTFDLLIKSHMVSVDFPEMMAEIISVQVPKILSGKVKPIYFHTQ
# Procedure, shortened: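 Screening used 2,000 AR-bla HEK293 cells per well, treated 16 h at 37C with test compounds in DMSO alongside positive and DMSO-only controls; beta-lactamase activity was then read by LiveBLAzer B/G FRET fluorescence after 2 h at room temperature.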
# [2] = biological target: Estrogen receptor (Homo sapiens) (UniProt P03372); experiment: qHTS assay to identify small molecule antagonists of the estrogen receptor alpha (ER-alpha) signaling pathway using the BG1 cell line in the presence of 0.1 nM 17-beta-estradiol (AID 1259244); note: nearly all actives have a fitted effect of over 50% in size; note: potency is the fitted concentration of half-maximal effect
# UniProt P03372, sequence (P03372 whole entry, looked up): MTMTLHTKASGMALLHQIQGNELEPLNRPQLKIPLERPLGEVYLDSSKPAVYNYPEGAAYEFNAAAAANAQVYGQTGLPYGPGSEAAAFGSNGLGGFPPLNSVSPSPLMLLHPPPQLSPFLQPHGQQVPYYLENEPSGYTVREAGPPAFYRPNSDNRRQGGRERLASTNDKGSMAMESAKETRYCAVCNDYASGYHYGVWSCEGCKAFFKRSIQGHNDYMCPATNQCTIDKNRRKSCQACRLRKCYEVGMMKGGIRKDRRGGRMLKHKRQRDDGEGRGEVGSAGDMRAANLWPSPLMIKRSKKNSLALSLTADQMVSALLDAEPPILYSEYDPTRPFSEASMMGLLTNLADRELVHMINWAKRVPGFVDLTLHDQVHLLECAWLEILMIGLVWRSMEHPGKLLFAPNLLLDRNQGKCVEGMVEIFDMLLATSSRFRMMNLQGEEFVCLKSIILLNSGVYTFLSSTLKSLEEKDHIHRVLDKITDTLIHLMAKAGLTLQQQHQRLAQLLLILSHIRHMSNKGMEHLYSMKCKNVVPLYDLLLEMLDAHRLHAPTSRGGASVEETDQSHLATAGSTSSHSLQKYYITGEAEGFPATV
# Procedure, shortened: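 Estradiol at 0.1 nM (final) stimulates the endogenous ER-alpha of VM7Luc4E2 cells carrying an ERE-driven luciferase; compounds are co-incubated 22 h at 37C and luciferase output quantified by luminescence.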
# [3] = qHTS assay for small molecules that induce genotoxicity in human embryonic kidney cells expressing luciferase-tagged ATAD5 - cell viability (AID 651634; calls by dose curve; note: nearly all actives have a fitted effect of over 25% in size; note: potency is the fitted concentration of half-maximal effect)
# Procedure, shortened: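 Viability read: CellTiter-Fluor fluorescence, 30 min at 37C. Cells: HEK293T, luciferase-tagged ATAD5. Exposure: 15.5 hr, 37C, 5% CO2, compound or DMSO vehicle.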
# [4] = biological target: Aromatase (Homo sapiens) (UniProt P11511); experiment: qHTS assay to identify aromatase inhibitors (AID 743083); note: nearly all actives have a fitted effect of over 55% in size; note: potency is the fitted concentration of half-maximal effect
# UniProt P11511, sequence (P11511 whole entry, looked up): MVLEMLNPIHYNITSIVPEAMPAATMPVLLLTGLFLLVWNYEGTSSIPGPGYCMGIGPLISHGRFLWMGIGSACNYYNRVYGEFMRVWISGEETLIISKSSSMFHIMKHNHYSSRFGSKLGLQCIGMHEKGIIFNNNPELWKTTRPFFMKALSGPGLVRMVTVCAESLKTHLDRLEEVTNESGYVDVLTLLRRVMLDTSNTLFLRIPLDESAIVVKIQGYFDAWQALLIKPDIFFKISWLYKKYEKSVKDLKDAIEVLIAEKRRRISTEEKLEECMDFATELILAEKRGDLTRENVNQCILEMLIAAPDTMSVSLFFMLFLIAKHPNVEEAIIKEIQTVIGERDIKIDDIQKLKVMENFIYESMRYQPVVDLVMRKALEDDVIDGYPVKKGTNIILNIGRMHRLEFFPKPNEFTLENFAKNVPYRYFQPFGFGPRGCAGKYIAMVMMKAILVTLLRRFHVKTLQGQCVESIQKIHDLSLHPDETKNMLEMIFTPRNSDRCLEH
# [5] = qHTS RealTime-Glo MT Cell Viability Assay in HepG2 cells - 24 hour (AID 1224867); note: % is set by controls: 0 for no effect and ±100 for the full control effect; nearly all actives have a fitted effect of over 50% in size
# Procedure, shortened: (§1)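 Viability was tracked continuously by NanoLuc luminescence from prosubstrate reduced by living HepG2 cells, at successive time points over 40 h of compound exposure. Cells with reagent were preincubated 5 h at 37 °C before compound addition.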
# [6] = qHTS RealTime-Glo MT Cell Viability Assay in HepG2 cells - 32 hour (AID 1224877); note: % is set by controls: 0 for no effect and ±100 for the full control effect; nearly all actives have a fitted effect of over 55% in size
# Procedure, shortened: as §1
# [7] = biological target: Estrogen receptor (Homo sapiens) (UniProt P03372); experiment: qHTS assay to identify small molecule agonists of the estrogen receptor alpha (ER-alpha) signaling pathway (AID 743075; calls by dose curve;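 note: HEK293 GripTite cells with ER-alpha and UAS-driven beta-lactamase reporter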; note: potency is the fitted concentration of half-maximal effect); conditions: HEK293 ER-alpha-UAS-bla, beta-lactamase FRET ratio, 18 h; activation: at 70.1 µM (top of the series)
# [8] = biological target: Glucocorticoid receptor (Homo sapiens) (UniProt P04150); experiment: qHTS assay to identify small molecule agonists of the glucocorticoid receptor (GR) signaling pathway (AID 720691; active = well fitted activation curve with a large enough effect in the signal ratio in the repeat runs, not every such curve was filed as active; inconclusive = weak or mixed curves, or effect the other way; inactive = no such curve, though single readings can be large or run the other way; the % refers to the signal ratio; note: potency is the fitted concentration of half-maximal effect); conditions: GR-bla HeLa, beta-lactamase reporter ratio, 18 h; activation: at 62.4 µM (top of the series) unless noted
# UniProt P04150, sequence (P04150 whole entry, looked up): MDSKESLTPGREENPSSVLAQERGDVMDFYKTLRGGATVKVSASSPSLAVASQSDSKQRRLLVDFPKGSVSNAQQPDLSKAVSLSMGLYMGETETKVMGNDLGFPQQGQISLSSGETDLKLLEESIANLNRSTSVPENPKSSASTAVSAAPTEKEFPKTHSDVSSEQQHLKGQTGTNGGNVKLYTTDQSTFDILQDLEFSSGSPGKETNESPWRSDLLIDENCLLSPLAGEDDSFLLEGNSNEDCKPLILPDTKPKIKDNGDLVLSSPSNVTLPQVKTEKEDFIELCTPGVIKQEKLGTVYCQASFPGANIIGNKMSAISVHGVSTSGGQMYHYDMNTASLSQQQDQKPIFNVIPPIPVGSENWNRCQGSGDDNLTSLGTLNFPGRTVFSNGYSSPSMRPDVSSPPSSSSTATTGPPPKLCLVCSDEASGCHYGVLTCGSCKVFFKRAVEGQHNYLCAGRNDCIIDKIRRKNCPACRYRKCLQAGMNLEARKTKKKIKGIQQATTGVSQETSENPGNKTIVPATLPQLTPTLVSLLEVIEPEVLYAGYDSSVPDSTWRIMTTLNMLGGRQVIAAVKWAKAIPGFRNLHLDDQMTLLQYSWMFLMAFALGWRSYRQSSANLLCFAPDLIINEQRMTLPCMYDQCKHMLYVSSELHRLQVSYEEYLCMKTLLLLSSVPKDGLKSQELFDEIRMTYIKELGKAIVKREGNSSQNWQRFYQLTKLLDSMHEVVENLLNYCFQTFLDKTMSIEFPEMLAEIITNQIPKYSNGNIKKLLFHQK
# Procedure, shortened: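 qHTS in GR-bla HeLa cells: 4 h settling at 37 C/5% CO2, 18 h compound incubation at 37 C, 2 h LiveBLAzer B/G FRET substrate at room temperature, fluorescence intensity measured.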
# [9] = A CellTox Green Cytotoxicity Assay to monitor cytotoxicity in HepG2 cells - 16 hour (AID 1224876); note: nearly all actives have a fitted effect of over 45% in size; note: potency is the fitted concentration of half-maximal effect
# Procedure, shortened: (§2)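 Using 1536-well format, dye-containing HepG2 suspension was seeded, allowed 5 h at 37 C/5% CO2, dosed by pintool with compounds, positive and negative controls, and imaged for fluorescence across 40 h.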
# [10] = qHTS assay to identify small molecule agonists of the androgen receptor (AR) signaling pathway in the presence of an antagonist - cell viability counter screen (AID 1259379);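 note: MDA-kb2 human breast cancer cells carrying an MMTV luciferase reporter; % is set by controls: 0 for no effect and ±100 for the full control effect; nearly all actives have a fitted effect of over 25% in size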
# Procedure, shortened: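 Seed MDA-kb2 at 3,000 cells/well; incubate 5 hr, 37C, 0% CO2. Add nilutamide to 3.0uM final, then pin compounds at 15 concentrations. Incubate 16 hr. Add CellTiter-Fluor at 15 hr, read fluorescence after 1 hr.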
# [11] = qHTS assay to identify small molecule antagonists of the TGF-beta/Smad signaling pathway (AID 1346924; active = well fitted inhibition curve with a large enough effect in the signal ratio in the repeat runs, not every such curve was filed as active; inconclusive = weak or mixed curves; the % refers to the signal ratio); conditions: SBE-bla HEK293T, TGF-beta/Smad reporter, beta-lactamase ratio; activity, negative = inhibition: at 76.8 µM (top of the series) unless noted
# Procedure, shortened: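 SBE-bla HEK 293T cells were plated overnight, then received compound in DMSO plus TGF-beta1 (added as a 0.25 ng/mL solution) and were incubated 5 h at 37 C. Beta-lactamase reporter activity was read after 2 h at room temperature with LiveBLAzer B/G FRET substrate (ex 405, em 460/530 nm).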
# [12] = biological target: Bile acid receptor (Homo sapiens) (UniProt Q96RI1); experiment: qHTS assay to identify small molecule antagonists of the farnesoid-X-receptor (FXR) signaling pathway (AID 743217; active = well fitted inhibition curve with a large enough effect in the signal ratio in the repeat runs, not every such curve was filed as active; inconclusive = weak or mixed curves, or effect the other way; inactive = no such curve, though single readings can be large or run the other way; the % refers to the signal ratio; note: % is set by controls: 0 for no effect and ±100 for the full control effect); conditions: HEK293T FXR-UAS-bla, beta-lactamase ratio, CDCA-stimulated, 16 h; activity change, negative = inhibition: at 62.6 µM (top of the series) unless noted
# UniProt Q96RI1, sequence (Q96RI1 whole entry, looked up): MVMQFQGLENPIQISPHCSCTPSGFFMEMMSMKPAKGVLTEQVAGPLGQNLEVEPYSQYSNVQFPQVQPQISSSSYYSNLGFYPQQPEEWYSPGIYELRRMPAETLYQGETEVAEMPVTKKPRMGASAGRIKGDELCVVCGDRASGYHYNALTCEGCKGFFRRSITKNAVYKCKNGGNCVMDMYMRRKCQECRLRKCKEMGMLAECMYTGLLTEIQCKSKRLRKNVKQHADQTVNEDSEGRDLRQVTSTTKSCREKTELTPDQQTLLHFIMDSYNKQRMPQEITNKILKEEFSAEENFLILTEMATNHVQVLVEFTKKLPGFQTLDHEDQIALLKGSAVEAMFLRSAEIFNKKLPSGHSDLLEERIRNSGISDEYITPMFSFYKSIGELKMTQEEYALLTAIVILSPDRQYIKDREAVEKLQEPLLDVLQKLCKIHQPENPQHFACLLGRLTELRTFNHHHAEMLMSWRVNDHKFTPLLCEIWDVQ
# Procedure, shortened: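 GeneBLAzer FXR-UAS-bla HEK 293T, CDCA-stimulated (50 uM final). Compound treatment 16 h, 37 °C. Detection: beta-lactamase cleavage of B/G FRET substrate, fluorescence.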
# [13] = qHTS assay for small molecule agonists of the antioxidant response element (ARE) signaling pathway - cell viability counter screen (AID 743203; calls by dose curve; note: nearly all actives have a fitted effect of over 55% in size; note: potency is the fitted concentration of half-maximal effect); conditions: ARE-bla HepG2 viability, CellTiter-Glo luminescence, 16 h; viability change, negative = cytotoxic: at 73.3 µM (top of the series)
# Procedure, shortened: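 Following 16 hrs of compound treatment at 37C, HepG2 cells with an ARE-controlled beta-lactamase gene were lysed with CellTiter-Glo. Luminescence was read after 30 min at room temperature.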
# [14] = qHTS assay to identify small molecule antagonists of the estrogen receptor alpha (ER-alpha) signaling pathway using the BG1 cell line in the presence of 0.1 nM 17-beta-estradiol - cell viability counter screen (AID 1259241); note: % is set by controls: 0 for no effect and ±100 for the full control effect; nearly all actives have a fitted effect of over 40% in size
# Procedure, shortened: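 Following 5 days in phenol red-free medium with charcoal-stripped serum, VM7Luc4E2 cells received test compounds alongside 0.1 nM 17beta-estradiol (final) at 37C for 22 hr. Live cells were then quantified via protease-substrate fluorescence.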
# [15] = tested on: thyroid hormone receptor (rat, GH3 cells); experiment: qHTS assay to identify small molecule agonists of the thyroid receptor (TR) signaling pathway (AID 743066; calls by dose curve; note: % is set by controls: 0 for no effect and ±100 for the full control effect); conditions: GH3.TRE-Luc cells, TR agonist luciferase, 24 h; activation: at 83.9 µM (top of the series) unless noted
# [16] = A CellTox Green Cytotoxicity Assay to monitor cytotoxicity in HepG2 cells - 8 hour (AID 1224890); note: potency is the fitted concentration of half-maximal effect; nearly all actives have a fitted effect of over 45% in size
# Procedure, shortened: as §2
# [17] = qHTS assay to identify small molecule antagonists of the estrogen related receptor (ERR) signaling pathway from Tox21 library (AID 1224848); note: % is set by controls: 0 for no effect and ±100 for the full control effect; nearly all actives have a fitted effect of over 50% in size
# Procedure, shortened: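 Reading was by luminescence 30 min after ONE-Glo addition. Before that, ERR cells at 2,000 per well had rested 6 h at 37 C/5% CO2 and then received pin-tooled compounds in DMSO for 18 h at 37 C.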
# [18] = biological target: Androgen receptor (Homo sapiens) (UniProt P10275); experiment: qHTS assay to identify small molecule antagonists of the androgen receptor (AR) signaling pathway (AID 743035; active = well fitted inhibition curve with a large enough effect in the signal ratio in the repeat runs, not every such curve was filed as active; inconclusive = weak or mixed curves, or effect the other way; inactive = no such curve, though single readings can be large or run the other way; the % refers to the signal ratio; note: % is set by controls: 0 for no effect and ±100 for the full control effect); conditions: HEK293 AR-UAS-bla, R1881-stimulated, beta-lactamase FRET, 16 h; activity change, negative = inhibition: at 58.5 µM (top of the series) unless noted
# Procedure, shortened: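 Beta-lactamase FRET read (2 h RT incubation with LiveBLAzer B/G) following 16 h of compound plus R1881 treatment of AR-UAS-bla HEK293 cells, which had been pre-incubated 4 h at 37C.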
# Tags give direction and shape of the fitted curve or compound fluorescence and quenching.
structure (smiles),measurement,setting,value
Nc1ccc(F)cc1F,Potency,[1],inactive
same,Potency,[2],inactive
O=S(=O)(O)c1ccc2c(N=Nc3ccc(S(=O)(=O)O)c4ccccc34)c(O)c(S(=O)(=O)O)cc2c1,Potency,[3],active: 13.3 µM
same,Potency,[4],"inconclusive [inhibitor, partial curve, poor fit]"
COc1ccc(/C=N/NC(=O)c2ccncc2)cc1OC,Potency,[5],inactive
same,Potency,[6],inactive
CCCCC(CC)COC(=O)c1ccccc1 (centres undefined),Potency,[7],inactive
CC(C)CCOCCC(C)C,Potency,[5],inactive
CC(=O)Nc1ccc(S(=O)(=O)Nc2cc(C)on2)cc1,Potency,[8],inactive
Nc1ccccn1,Potency,[4],inactive
same,Potency,[9],inactive
CCCCCC=O,Potency,[3],inactive
CCN(CC)CC(=O)Oc1ccc(NC(C)=O)cc1,Potency,[9],inactive
O=C[C@H](O)[C@H](O)[C@H](O)CO,Potency,[6],inactive
CCCC(=O)O[C@]1(C(=O)COC(=O)CC)CC[C@H]2[C@@H]3CCC4=CC(=O)CC[C@]4(C)[C@H]3[C@@H](O)C[C@@]21C,Potency,[8],active: 0.301 µM
same,Potency,[1],active: 0.0239 µM
CC(=O)CCc1ccc(O)cc1,Potency,[10],inactive
C=CC(=O)OCCN(CC)CC,"activity, negative = inhibition",[11],inconclusive: 1.76%
CC(C)COC(=O)CCCCC(=O)OCC(C)C,Potency,[5],inactive
C/C(=N/NC(=O)c1ccncc1)C(=O)O,Potency,[9],"inconclusive [activator, single point]"
CC(=O)C1CCCCC1=O (centres undefined),Potency,[5],inactive
CC(C)c1cccc(C(C)C)c1,"activity change, negative = inhibition",[12],inconclusive: -0.623%
O=S(=O)(O)c1cccc2c(S(=O)(=O)O)cccc12,Potency,[13],inactive
Oc1cc2ccccc2cc1O,Potency,[14],inactive
CN(C)C,Potency,[13],"inconclusive [cytotoxic, partial curve, poor fit]"
Nc1nc2c(ncn2CCC(CO)CO)c(=O)[nH]1,Potency,[10],inactive
C[Si](C)(C)O[Si](O)(O)O,Potency,[15],inactive
same,Potency,[12],inactive
N[C@@H](Cc1cc(I)c(Oc2ccc(O)c(I)c2)c(I)c1)C(=O)O,Potency,[3],inactive
same,Potency,[8],"inconclusive [rising, partial curve, poor fit]"
same,activation,[8],inconclusive: -9.31% [phenotype inactive]
same,Potency,[7],active: 9.51 µM [activator] and inactive and active: 51 µM [fluorescent]
same,Potency,[2],"inconclusive [inhibitor, partial curve]"
CCC(C)c1nccnc1OC (centres undefined),Potency,[4],inactive
CC(=O)c1ccc(O)cc1,"activity change, negative = inhibition",[12],inconclusive: 3.12%
CC(C)(CO)[C@@H](O)C(=O)NCCC(=O)O,Potency,[10],inactive
O=Cc1ccccc1Cl,Potency,[13],inactive
C=C(C)OC(C)=O,Potency,[7],"inconclusive [falling, single point]"
same,Potency,[6],inactive
same,Potency,[16],"inconclusive [activator, partial curve, poor fit]"
FB(F)F,Potency,[15],inactive
same,Potency,[17],inactive
CCOC(=O)[C@H](CCc1ccccc1)N[C@H]1CS[C@H](c2cccs2)CN(CC(=O)O)C1=O,Potency,[18],inactive
O=C(O)COC(=O)Cc1ccccc1Nc1c(Cl)cccc1Cl,Potency,[1],inactive
O=Cc1ccc(CO)o1,Potency,[8],inactive
same,Potency,[16],"inconclusive [activator, single point]"
CCO[Si](OCC)(OCC)c1ccccc1,Potency,[12],inactive
same,"activity, negative = inhibition",[11],inconclusive: 3.86%
CS(=O)(=O)c1ccc(Cl)cc1,Potency,[4],inactive
same,Potency,[16],"inconclusive [activator, single point]"
CC1(C)C(=O)C(C)(C)C1=O,Potency,[1],inactive
same,Potency,[12],inactive
CC(=O)N1CCN(c2ccc(O)cc2)CC1,Potency,[6],inactive
same,Potency,[14],inactive
